According to the supplement of paper PMC8728848:
Some of the results follow.

Legend:
Experiment in all cases: glycan array binding signal (z-score within array); higher = stronger binding
Conditions in all cases: glycan notation: IUPAC condensed, linker removed
[1] = biological target: GalNAc(b1-4)GlcNAc(b1-2)Man
Outline: (§1)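 Columns mapping to the same glycan were averaged after glycan names were converted to IUPAC-condensed notation. The data come from 3228 arrays in the Consortium for Functional Glycomics database, limited to those with an available protein sequence. Binding is reported as a within-array Z-score averaged across arrays of one protein sequence and across linkers.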

[2] = biological target: GalNAc(b1-4)GlcNAc(b1-2)Man(a1-3)[GalNAc(b1-4)GlcNAc(b1-2)Man(a1-6)]Man(b1-4)GlcNAc(b1-4)GlcNAc
Outline: as §1

[3] = biological target: GalNAc(b1-4)GlcNAc(b1-3)GalNAc(b1-4)GlcNAc
Outline: as §1

GalNAc(b1-4)GlcNAc6S = biological target: GalNAc(b1-4)GlcNAc6S
Outline: as §1

GalNAc(b1-6)GalNAc = biological target: GalNAc(b1-6)GalNAc
Outline: as §1

GalNAc3S(b1-4)GlcNAc = biological target: GalNAc3S(b1-4)GlcNAc
Outline: as §1

GalNAc3S(b1-4)GlcNAc3S = biological target: GalNAc3S(b1-4)GlcNAc3S
Outline: as §1

[4] = biological target: GalNAc3S(b1-4)[Fuc(a1-3)]GlcNAc
Outline: as §1

GalNAc4S6S(b1-4)GlcNAc = biological target: GalNAc4S6S(b1-4)GlcNAc
Outline: as §1

GalNAc6S(b1-4)GlcNAc = biological target: GalNAc6S(b1-4)GlcNAc
Outline: as §1

Glc(a1-4)Glc = biological target: Glc(a1-4)Glc
Outline: as §1

[5] = biological target: Glc(a1-4)Glc(a1-4)Glc(a1-4)Glc
Outline: as §1

Glc(a1-6)Glc(a1-6)Glc = biological target: Glc(a1-6)Glc(a1-6)Glc
Outline: as §1

[6] = biological target: Glc(a1-6)Glc(a1-6)Glc(a1-6)Glc
Outline: as §1

Glc(b1-4)Glc = biological target: Glc(b1-4)Glc
Outline: as §1

Glc(b1-6)Glc = biological target: Glc(b1-6)Glc
Outline: as §1

GlcA(b1-3)Gal = biological target: GlcA(b1-3)Gal
Outline: as §1

GlcA(b1-3)GlcNAc = biological target: GlcA(b1-3)GlcNAc
Outline: as §1

GlcA(b1-6)Gal = biological target: GlcA(b1-6)Gal
Outline: as §1

[7] = biological target: GlcA3S(b1-3)Gal(b1-4)GlcNAc(b1-2)Man
Outline: as §1

[8] = biological target: GlcA3S(b1-3)Gal(b1-4)GlcNAc(b1-3)Gal(b1-4)Glc
Outline: as §1

[9] = biological target: GlcNAc(a1-3)Gal(b1-4)GlcNAc
Outline: as §1

[10] = biological target: GlcNAc(a1-4)Gal(b1-3)GlcNAc
Outline: as §1

[11] = biological target: GlcNAc(a1-4)Gal(b1-4)GalNAc
Outline: as §1

[12] = biological target: GlcNAc(a1-4)Gal(b1-4)GlcNAc
Outline: as §1

[13] = biological target: GlcNAc(a1-4)Gal(b1-4)GlcNAc(b1-3)Gal(b1-4)Glc
Outline: as §1

[14] = biological target: GlcNAc(a1-4)Gal(b1-4)GlcNAc(b1-3)Gal(b1-4)GlcNAc
Outline: as §1

[15] = biological target: GlcNAc(a1-4)Gal(b1-4)GlcNAc(b1-3)Gal(b1-4)GlcNAc(b1-3)Gal(b1-4)GlcNAc
Outline: as §1

[16] = biological target: GlcNAc(a1-4)Gal(b1-4)GlcNAc(b1-3)Gal(b1-4)[Fuc(a1-3)]GlcNAc(b1-3)Gal(b1-4)[Fuc(a1-3)]GlcNAc
Outline: as §1

[17] = biological target: GlcNAc(a1-6)Gal(b1-4)GlcNAc
Outline: as §1

[18] = biological target: GlcNAc(b1-2)Gal(b1-3)GalNAc
Outline: as §1

[19] = biological target: GlcNAc(b1-2)Man(a1-3)[GlcNAc(b1-2)Man(a1-6)]Man(b1-4)GlcNAc(b1-4)GlcNAc
Outline: as §1

[20] = biological target: GlcNAc(b1-2)Man(a1-3)[GlcNAc(b1-2)Man(a1-6)]Man(b1-4)GlcNAc(b1-4)[Fuc(a1-6)]GlcNAc
Outline: as §1

[21] = biological target: GlcNAc(b1-2)Man(a1-3)[GlcNAc(b1-4)][GlcNAc(b1-2)Man(a1-6)]Man(b1-4)GlcNAc(b1-4)GlcNAc
Outline: as §1

[22] = biological target: GlcNAc(b1-2)Man(a1-3)[GlcNAc(b1-4)][GlcNAc(b1-2)Man(a1-6)]Man(b1-4)GlcNAc(b1-4)[Fuc(a1-6)]GlcNAc
Outline: as §1

[23] = biological target: GlcNAc(b1-2)[GlcNAc(b1-4)]Man(a1-3)[GlcNAc(b1-2)Man(a1-6)]Man(b1-4)GlcNAc(b1-4)GlcNAc
Outline: as §1

[24] = biological target: GlcNAc(b1-2)[GlcNAc(b1-4)]Man(a1-3)[GlcNAc(b1-4)][GlcNAc(b1-2)Man(a1-6)]Man(b1-4)GlcNAc(b1-4)GlcNAc
Outline: as §1

B1: B725 (Bifidobacterium sp) (protein)
chain: MNNTTRAVIATAAIGALLIPLAGCGNTTTSSGKTELTVWSWDASIDRAAKSFMKANPDITVKVSNVGSTEETYTALNNAAQAGSGLPDVTLIEYLAIPQFVHSDTLMDLSKVYNTAKLKDTFTPGTWNSVNINGGLYAMPADSGPMAYFYDKDVFDKAGISEPPTTWDEFYEDAKKIRATGSYITSDSGDAGLFNAMMWAMGGHAYKLNDDKLTINIAKDKGAQRFMDLWQKMRDEDLIDVHTKTWTDDWMKSLGDGSIASLISGAWMANNLLQGVPQATGKFRVALLPTIDGTPINGEYGGSGLAITKKIPDGKLDAAKKFVEYVTTNDEGIDARVSNGSFPATTKTLNQKDFLAKTTLRNTDGSDNEFFGGQKYNEIFSQAAKDVTGKWEFLPFEPYARSVYNDNMGSFFAGKTSFRTAADNWQKALKDYAKDQGFTVQ
[1]
  glycan array binding signal (z-score): -0.236
[2]
  glycan array binding signal (z-score): -0.05
[3]
  glycan array binding signal (z-score): -0.211
GalNAc(b1-4)GlcNAc6S
  glycan array binding signal (z-score): -0.217
GalNAc(b1-6)GalNAc
  glycan array binding signal (z-score): -0.233
GalNAc3S(b1-4)GlcNAc
  glycan array binding signal (z-score): -0.222
GalNAc3S(b1-4)GlcNAc3S
  glycan array binding signal (z-score): -0.219
[4]
  glycan array binding signal (z-score): -0.229
GalNAc4S6S(b1-4)GlcNAc
  glycan array binding signal (z-score): -0.219
GalNAc6S(b1-4)GlcNAc
  glycan array binding signal (z-score): -0.224
Glc(a1-4)Glc
  glycan array binding signal (z-score): -0.211
[5]
  glycan array binding signal (z-score): -0.214
Glc(a1-6)Glc(a1-6)Glc
  glycan array binding signal (z-score): -0.218
[6]
  glycan array binding signal (z-score): -0.205
Glc(b1-4)Glc
  glycan array binding signal (z-score): -0.191
Glc(b1-6)Glc
  glycan array binding signal (z-score): -0.219
GlcA(b1-3)Gal
  glycan array binding signal (z-score): -0.212
GlcA(b1-3)GlcNAc
  glycan array binding signal (z-score): -0.228
GlcA(b1-6)Gal
  glycan array binding signal (z-score): -0.219
[7]
  glycan array binding signal (z-score): -0.223
[8]
  glycan array binding signal (z-score): -0.216
[9]
  glycan array binding signal (z-score): -0.234
[10]
  glycan array binding signal (z-score): -0.213
[11]
  glycan array binding signal (z-score): -0.225
[12]
  glycan array binding signal (z-score): -0.209
[13]
  glycan array binding signal (z-score): -0.211
[14]
  glycan array binding signal (z-score): -0.217
[15]
  glycan array binding signal (z-score): -0.201
[16]
  glycan array binding signal (z-score): -0.174
[17]
  glycan array binding signal (z-score): -0.215
[18]
  glycan array binding signal (z-score): -0.223
[19]
  glycan array binding signal (z-score): -0.223
[20]
  glycan array binding signal (z-score): -0.224
[21]
  glycan array binding signal (z-score): -0.221
[22]
  glycan array binding signal (z-score): -0.23
[23]
  glycan array binding signal (z-score): -0.201
[24]
  glycan array binding signal (z-score): -0.219
